Screen size: about 54,000 compounds; about 120 (0.22%) were called active. The inconclusive results got no clear call from the source; some entries with a clear call stand among them for comparison. Calls follow the shape of the dose curve; as a rule, active = well fitted inhibition curve with a large enough effect; inconclusive = small, poorly fitted or top-dose-only effect, or effect the other way; inactive = flat fitted curve, though single readings scatter. Potencies of inconclusive entries are left out as doubtful fits.
Molecular target: Fumarate hydratase, mitochondrial (Homo sapiens) (UniProt P07954)
Chain of UniProt P07954 (P07954 whole entry, looked up): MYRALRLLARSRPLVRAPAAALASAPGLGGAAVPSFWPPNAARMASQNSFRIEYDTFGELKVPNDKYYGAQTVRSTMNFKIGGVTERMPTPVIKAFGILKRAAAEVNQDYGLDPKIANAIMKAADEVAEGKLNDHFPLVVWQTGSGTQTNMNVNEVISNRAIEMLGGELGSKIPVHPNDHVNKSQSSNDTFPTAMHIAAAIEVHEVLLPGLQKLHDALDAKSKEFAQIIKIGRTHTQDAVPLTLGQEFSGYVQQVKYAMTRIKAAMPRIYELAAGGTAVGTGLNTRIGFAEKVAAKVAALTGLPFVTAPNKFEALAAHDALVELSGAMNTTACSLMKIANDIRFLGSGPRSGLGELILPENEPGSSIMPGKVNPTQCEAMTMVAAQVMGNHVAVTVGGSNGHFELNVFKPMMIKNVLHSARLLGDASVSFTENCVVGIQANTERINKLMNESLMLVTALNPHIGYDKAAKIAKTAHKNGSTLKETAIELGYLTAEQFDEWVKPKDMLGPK
Assay: Identification of activators of human fumarate hydratase by quantitative high-throughput screening; also: the screen sought activators but most active calls are inhibition curves; nearly all actives have a fitted effect of over 45% in size
Settings: FH coupled MDH/diaphorase resazurin fluorescence, 15 min; activity change, negative = inhibition: at 79.9 µM (top of the series)
% is scaled to controls: 0 for no effect and ±100 for the full control effect; potency is read from the fitted curve at half-maximal effect; tags tell the direction and shape of the fitted curve.

Question: For `O=C(c1ccccc1Cl)n1nc(-c2cccnc2)nc1NCc1ccc(F)cc1`, which Potency is on record?
Answer: inconclusive [inhibitor, partial curve, poor fit]

Question: For `Cc1cc(C)c(NC(=O)c2cc3c(=O)n4ccccc4nc3n2C)c(C)c1`, which Potency is on record?
Answer: inconclusive [inhibitor, partial curve, poor fit]

Question: With `COc1ccc(S(=O)(=O)Nc2cc3c(cc2NCc2ccccc2)n(C)c(=O)n3C)cc1OC` as the compound, how does the Potency read?
Answer: inconclusive [inhibitor, partial curve]

Question: With `Cc1cccc(NS(=O)(=O)c2ccc3c(c2)CCN3C(=O)CCC(=O)O)c1C` as the compound, how does the Potency read?
Answer: inconclusive [inhibitor, partial curve, poor fit]

Question: With `CCn1cc(C(=O)N2CCN(c3cc(C)ccc3C)CC2)c(=O)c2cc(S(=O)(=O)N(C)C3CCCCC3)ccc21` as the compound, how does the Potency read?
Answer: inconclusive [inhibitor, single point]

Question: How did the Potency turn out when `c1ccc(-c2cnn3cc(-c4ccc(OCCN5CCOCC5)cc4)cnc23)cc1` was run?
Answer: inactive

Question: How did the Potency turn out when `CC(C)(C)OC(=O)N1CCC(c2c(C(=O)NCCN3CCC(Cc4ccccc4)CC3)cnn2-c2ccccc2)CC1` was run?
Answer: inconclusive [inhibitor, single point]

Question: For `CCOC(=O)c1ccc(NC(=O)CC2C(=O)N(c3ccc(F)cc3)C(=O)N2Cc2ccc3c(c2)OCO3)cc1` (centres undefined), which Potency is on record?
Answer: inconclusive [inhibitor, partial curve, poor fit]

Question: For `Cc1ccc(CNC(=O)Cn2cc3c(n2)-c2c(oc(C(=O)N4CCOCC4)c2C)CC3)cc1`, which Potency is on record?
Answer: inconclusive [inhibitor, partial curve, poor fit]

Question: `COC(=O)c1cc(S(=O)(=O)N2CCN(c3cc(Cl)ccc3C)CC2)c[nH]1` was tested. Which Potency did it give?
Answer: inconclusive [inhibitor, single point]

Question: How did the Potency turn out when `Cc1ccc(Cl)cc1NC(=O)c1nc[nH]c1C(=O)Nc1nc2ccccc2[nH]1` was run?
Answer: inconclusive [activator, partial curve, poor fit]

Question: With `Cc1[nH]c(/C=C2\C(=O)Nc3ccc(F)cc32)c(C)c1C(=O)NCCN1CCCC1` as the compound, how does the Potency read?
Answer: inactive

Question: With `C[C@H]1[C@H](C)C[C@@H](C(=O)O)C2CC[C@]3(C)C(=CC[C@@H]4[C@@]5(C)CC[C@H](O)C(C)(C)[C@@H]5CC[C@]43C)[C@@H]21` (some centres undefined) as the compound, how does the Potency read?
Answer: inactive

Question: `O=C(CN1C(=O)CC(c2ccco2)Sc2ccccc21)Nc1cccc(C(F)(F)F)c1` (centres undefined) was tested. Which Potency did it give?
Answer: inconclusive [inhibitor, partial curve, poor fit]

Question: With `N[C@@H](Cc1cc(I)c(O)c(I)c1)C(=O)O` as the compound, how does the Potency read?
Answer: inactive

Question: For `O=C(Nc1ccc(S(=O)(=O)N2CCOCC2)cc1)c1cc(Cl)ccc1NS(=O)(=O)c1ccc(Cl)s1`, which Potency is on record?
Answer: inconclusive [inhibitor, single point]

Question: With `CC1CCC2(C(=O)O)CCC3(C)C(=CCC4C5(C)CCC(OC(=O)/C=C/c6ccccc6)C(C)(C)C5CCC43C)C2C1C` (centres undefined) as the compound, how does the Potency read?
Answer: inactive

Question: How did the Potency turn out when `CCOC(=O)c1c(C)oc2nc(C)nc(NCC3CCN(Cc4ccccc4C)CC3)c12` was run?
Answer: inconclusive [inhibitor, single point]

Question: Which Potency does the source give for `CC(C)C[C@H](CO)Nc1nc(S[C@@H](C)c2ccccc2)nc2nc(N)sc12` here?
Answer: inconclusive [inhibitor, partial curve, poor fit]

Question: `O=C(NCCc1ccccc1)c1ccc(CSc2nc3cccnc3n2Cc2ccccc2F)cc1` was tested. Which Potency did it give?
Answer: inconclusive [inhibitor, partial curve, poor fit]

Question: For `Cc1nc(-c2ccc(F)cc2)sc1CCNC(=O)c1ccc(OC(C)C)cc1`, which Potency is on record?
Answer: inconclusive [inhibitor, partial curve, poor fit]

Question: Which Potency does the source give for `CC(C)N1CCc2c(sc(NC(=O)c3ccc(S(=O)(=O)N(C)C4CCCCC4)cc3)c2C(N)=O)C1` here?
Answer: inconclusive [inhibitor, single point]

Question: `Cc1ccc2c(c1)-c1c(cnn1CC(=O)N1CCN(c3cc(C)ccc3C)CC1)CO2` was tested. Which Potency did it give?
Answer: inconclusive [inhibitor, partial curve, poor fit]

Question: With `COC(=O)[C@]1(C)CCC[C@@]2(C)[C@@H]3CC[C@@H]4C[C@@]3(CC[C@@H]21)C[C@H]4C(=O)O` as the compound, how does the Potency read?
Answer: inactive

Question: How did the Potency turn out when `CC(C)c1ccc(NC(=O)CSC2=Nc3ccccc3C3=NC(CCC(=O)NCc4ccc(F)cc4)C(=O)N23)cc1` (centres undefined) was run?
Answer: inconclusive [inhibitor, single point]

Question: For `CC(=O)Nc1ccc(NC(=O)CSc2cn(CC(=O)N(C(C)C)C(C)C)c3ccccc23)cc1`, which Potency is on record?
Answer: inconclusive [inhibitor, single point]

Question: `COc1ccc(CNc2nc(-c3ccco3)nn2S(=O)(=O)c2ccc3ccccc3c2)cc1OC` was tested. Which Potency did it give?
Answer: inconclusive [inhibitor, partial curve, poor fit]

Question: Which Potency does the source give for `C#C[C@]1(O)CC[C@H]2[C@@H]3CCC4=Cc5oncc5C[C@]4(C)[C@H]3CC[C@@]21C` here?
Answer: inactive

Question: `Cc1ccc(C(C)C)c(OCC(=O)Nc2cccc(-c3nc4ncccc4o3)c2)c1` was tested. Which Potency did it give?
Answer: inconclusive [inhibitor, partial curve]

Question: `CCOc1ccc(-c2cc3c(=O)n(Cc4nc(-c5ccc(OC)cc5OC)oc4C)ccn3n2)cc1Cl` was tested. Which Potency did it give?
Answer: inconclusive [inhibitor, partial curve, poor fit]

Question: For `CCOc1ccc(NC(=O)N(Cc2ccc(CC)cc2)Cc2cn[nH]c2-c2ccc(OC)cc2)cc1`, which Potency is on record?
Answer: inconclusive [inhibitor, single point]

Question: Which Potency does the source give for `O=C(Nc1ccc([N+](=O)[O-])cc1Cl)c1cc(Cl)ccc1O` here?
Answer: inconclusive [inhibitor, single point]

Question: With `CCCN1CCc2nc(SCC(=O)Nc3ccc(C)c(Cl)c3)[nH]c(=O)c2C1` as the compound, how does the Potency read?
Answer: inconclusive [inhibitor, single point]

Question: With `Cc1cc(N2CCN(c3cccc(C(F)(F)F)c3)CC2)n2nc(-c3ccccc3C)nc2n1` as the compound, how does the Potency read?
Answer: inconclusive [inhibitor, single point]

Question: How did the Potency turn out when `COc1ccc(C2C=C(c3ccccc3)Nc3nc(NS(=O)(=O)c4ccc(C)cc4)nn32)cc1` (centres undefined) was run?
Answer: inactive

Question: Which Potency does the source give for `Cc1ccc(OCC(=O)N(Cc2ccc(Cl)cc2)CC2CCCO2)cc1C` (centres undefined) here?
Answer: inconclusive [inhibitor, partial curve, poor fit]

Question: For `C[C@]12CC[C@@H]3c4ccc(O)c(O)c4CC[C@H]3[C@@H]1CCC2=O`, which Potency is on record?
Answer: inconclusive [inhibitor, single point]

Question: Which Potency does the source give for `CCOc1ccc(Nc2ncnc3c2nc2n3CCCCC2)cc1` here?
Answer: inactive

Question: For `CCc1ccc(C2Sc3ccccc3NC3=C2C(=O)c2ccccc23)cc1` (centres undefined), which Potency is on record?
Answer: inconclusive [inhibitor, single point]

Question: For `CC(=O)c1cccc(Nc2ccc3cc(S(=O)(=O)N4CCC(C)CC4)ccc3n2)c1`, which Potency is on record?
Answer: inconclusive [inhibitor, partial curve, poor fit]

Question: How did the Potency turn out when `Cn1cc(-c2ccc3nnc(Sc4ccc5nn(C)cc5c4)n3n2)cn1` was run?
Answer: inactive

Question: Which Potency does the source give for `CCc1ccc2nc(N3CCC(C(=O)O)CC3)sc2c1` here?
Answer: inactive

Question: `Cc1c(C(N)=O)nnn1-c1ccc(Br)cc1` was tested. Which Potency did it give?
Answer: inconclusive [inhibitor, single point]

Question: How did the activity change, negative = inhibition turn out when `Cc1ccc2nc(N(Cc3cccnc3)C(=O)C3CCCCC3)sc2c1` was run?
Answer: inconclusive: -34.7% [inhibitor]

Question: For `CCCCNC(=O)c1[nH]c2ccccc2c1Sc1ccc(C)cc1`, which Potency is on record?
Answer: inconclusive [inhibitor, partial curve, poor fit]

Question: Which Potency does the source give for `Cc1ccc(S(=O)(=O)Nc2cccc(-c3ccc(N4CCCCC4)nn3)c2)s1` here?
Answer: inconclusive [inhibitor, single point]

Question: How did the Potency turn out when `Cc1ccc(C(=O)NCC(c2cccs2)S(=O)(=O)c2cccs2)cc1C` (centres undefined) was run?
Answer: inconclusive [inhibitor, partial curve, poor fit]

Question: Which Potency does the source give for `CC(O)C1NC(=O)C2CCCN2C1=O` (centres undefined) here?
Answer: inactive

Question: How did the Potency turn out when `CC(=O)c1ccc(NC(=O)CSc2cn(CC(=O)N3CCCCC3)c3ccccc23)cc1` was run?
Answer: inconclusive [inhibitor, partial curve]

Question: For `COc1ccc(F)cc1S(=O)(=O)NCCc1csc(-c2ccc(Cl)cc2)n1`, which Potency is on record?
Answer: inconclusive [inhibitor, single point]

Question: Which Potency does the source give for `CCC(=O)Nc1sc2c(c1C(=O)Nc1ccc(OC)cc1)CCC(C(C)(C)C)C2` (centres undefined) here?
Answer: inconclusive [inhibitor, partial curve, poor fit]

Question: For `COc1ccc(OC)c(NC(=O)CSc2n[nH]c(-c3ccccc3Cl)n2)c1`, which Potency is on record?
Answer: active: 7.94 µM

Question: How did the activity change, negative = inhibition turn out when `Brc1ccc(-c2ccc(CNCCSc3nnnn3-c3ccccc3)o2)cc1` was run?
Answer: inconclusive: -30.5% [inhibitor]

Question: With `O=S1(=O)c2ccccc2N(Cc2ccc(Cl)cc2F)c2ccccc21` as the compound, how does the Potency read?
Answer: inconclusive [inhibitor, partial curve, poor fit]

Question: Which Potency does the source give for `CCN(CC)S(=O)(=O)c1ccc2c(c1)N(CC(=O)N1CCN(c3cc(Cl)ccc3C)CC1)C(=O)CO2` here?
Answer: inactive

Question: How did the Potency turn out when `CCN(C(=O)c1cc2c(s1)-c1c(C)cccc1OC2)c1cc(C)ccc1C` was run?
Answer: inconclusive [inhibitor, partial curve, poor fit]

Question: How did the Potency turn out when `CCOC(=O)c1ccc(N2C(=O)c3n[nH]c(-c4cccs4)c3C2c2ccc(O)c(OC)c2)cc1` (centres undefined) was run?
Answer: inconclusive [inhibitor, partial curve]

Question: For `Cc1ccc(-n2c(SCc3ccccc3F)nc3[nH]ncc3c2=O)cc1C`, which Potency is on record?
Answer: inconclusive [inhibitor, partial curve]

Question: How did the Potency turn out when `Nc1nonc1-c1nc2cnccc2n1C1CCCCC1` was run?
Answer: inconclusive [activator, full curve]

From PubChem BioAssay AID1347055 (National Center for Advancing Translational Sciences (NCATS), 2019)
